{
  "source": "patent US20240228612A1",
  "about": "(SICHUAN KELUN BIOTECH BIOPHARMACEUTICAL, published 2024)",
  "biological_target": "T1, human Nectin-4 on cell membrane surface (human, UniProt Q96NY8 32-510)",
  "T1 sequence (looked up)": "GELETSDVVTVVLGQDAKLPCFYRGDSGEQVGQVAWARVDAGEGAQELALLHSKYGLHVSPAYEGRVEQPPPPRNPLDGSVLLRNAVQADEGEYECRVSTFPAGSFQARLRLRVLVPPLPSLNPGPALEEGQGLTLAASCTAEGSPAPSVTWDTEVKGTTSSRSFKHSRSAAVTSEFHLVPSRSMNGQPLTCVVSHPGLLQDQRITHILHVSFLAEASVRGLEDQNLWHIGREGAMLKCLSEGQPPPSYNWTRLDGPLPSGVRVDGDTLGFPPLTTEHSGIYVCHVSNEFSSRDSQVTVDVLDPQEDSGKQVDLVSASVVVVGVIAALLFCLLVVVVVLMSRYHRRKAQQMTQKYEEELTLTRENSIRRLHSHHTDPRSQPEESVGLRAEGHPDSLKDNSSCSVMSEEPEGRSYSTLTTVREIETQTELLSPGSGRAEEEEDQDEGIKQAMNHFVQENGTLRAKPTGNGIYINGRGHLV",
  "test": "cell-based or functional assay",
  "data": [
    {"binder": "anti-human Nectin-4 ADC 56HZ-TL001 (other, DAR 7.71, TL001 linked by thioether bond to sulfhydryl groups) heavy: QVQLQESGPGLVKPSQTLSLTCTVSGYFNSITSDYDWHWIRHHPGKGLEWMGYISFSGRTYYNPSLKSRVTISHDTSKNQFSLKLSSVTAADTAVYYCARGNYDGFDYWGQGTLVTVSS[human IgG1 constant region not printed] light: DIVLTQSPATLSLSPGERATLSCRASQNIGTSIHWYQHKPGQSPRLLIKFASESISGIPARFSGSGSGTDFTLTISSLEPEDFAVYYCQQSKSWPTYTFGGGTKVEIKRTVAAPSVFIFPPSDEQLKSGTASVVCLLNNFYPREAKVQWKVDNALQSGNSQESVTEQDSKDSTYSLSSTLTLSKADYEKHKVYACEVTHQGLSSPVTKSFNRGEC", "values": [
      {"measurement": "killing activity EC50 on NCI-N87 cells (CCK8)", "result": 10.9, "unit": "µg/mL"},
      {"measurement": "killing activity EC50 on T24-Nectin-4 cells (CCK8)", "result": 1.57, "unit": "µg/mL"}
    ]}
  ]
}
